Not every entry of the source has a single result; some have several. Only these are listed. An entry can have further records. Results that share an entry repeat one measurement across runs, samples, wells, individuals or studies. Results filed as inconclusive are left out. Rule for the calls, unless noted: active = hit-call score of the fitted dose curve at least 0.9, where 1 is the maximum; inconclusive = response in the unintended direction; inactive = score below 0.9. The source holds several records for some structures; these can differ, active in one and inactive in another.

AC50 data for 8 compounds are collected here from PubChem BioAssay (EPA / NIEHS).

The nature of experiment [1]: ATG_ISRE_CIS: Attagene CIS-FACTORIAL HepG2 Assay for human Interferon Regulatory Factor 1 (IRF1) binding to an Interferon-Stimulated Response Element (ISRE) (AID 2282948; active = hit-call score of the fitted dose curve at least 0.9, where 1 is the maximum; inactive = score below 0.9). The settings on record: HepG2 ISRE cis-reporter (Attagene), mRNA transcription readout; actives raise or lower the signal. The procedure, abridged: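 Signal reflects induction or loss of ISRE-linked reporter mRNA in transiently transfected HepG2 cells after a 24 h treatment, detected by fluorescent RT-PCR fragments on capillary electrophoresis and normalised to DMSO.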

The nature of experiment [2]: ATG_PPRE_CIS: Attagene CIS-FACTORIAL HepG2 Assay for human Peroxisome Proliferator-activated Response Element (PPRE) (AID 2282958; active = hit-call score of the fitted dose curve at least 0.9, where 1 is the maximum; inactive = score below 0.9). The following applies: HepG2 PPRE cis-element reporter, Attagene transcription factor profiling; actives raise or lower the signal. The procedure, abridged: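 DMSO served as negative control and baseline for bidirectional curve fitting. Signal came from PPRE-regulated reporter mRNA in HepG2 cells, measured 24 h post-dosing by RT-PCR, 6-FAM primer extension and capillary electrophoresis.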

Experiment [3] in a line: ATG_Oct_MLP_CIS: Attagene CIS-FACTORIAL HepG2 Assay for human Octamer-Binding Transcription Factor (Oct) (AID 2282993; active = hit-call score of the fitted dose curve at least 0.9, where 1 is the maximum; inactive = score below 0.9). The following applies: HepG2 Attagene cis-factorial Oct reporter, mRNA; actives raise or lower the signal. The procedure, abridged:
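Transfected HepG2 cells, 24 h treatment. Reporter mRNA quantified by RT-PCR–capillary electrophoresis; bidirectional fitting against DMSO.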

For experiment [4], the target named is Cellular tumor antigen p53 (Homo sapiens) (UniProt P04637). The experiment in a line: ATG_p53_CIS: Attagene CIS-FACTORIAL HepG2 Assay for human p53 Transcription Factor (AID 2282994; active = hit-call score of the fitted dose curve at least 0.9, where 1 is the maximum; inactive = score below 0.9). The following applies: HepG2 p53 cis-element reporter, Attagene mRNA; actives raise or lower the signal. The procedure, abridged: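 Transiently transfected HepG2 (multiple cis reporter transcription units); exposure 24 h; reporter RNA via RT-PCR, 6-FAM extension, 2 h HpaI digest at 37 C, CE detection; DMSO baseline.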
Sequence of UniProt P04637 (P04637 whole entry, looked up): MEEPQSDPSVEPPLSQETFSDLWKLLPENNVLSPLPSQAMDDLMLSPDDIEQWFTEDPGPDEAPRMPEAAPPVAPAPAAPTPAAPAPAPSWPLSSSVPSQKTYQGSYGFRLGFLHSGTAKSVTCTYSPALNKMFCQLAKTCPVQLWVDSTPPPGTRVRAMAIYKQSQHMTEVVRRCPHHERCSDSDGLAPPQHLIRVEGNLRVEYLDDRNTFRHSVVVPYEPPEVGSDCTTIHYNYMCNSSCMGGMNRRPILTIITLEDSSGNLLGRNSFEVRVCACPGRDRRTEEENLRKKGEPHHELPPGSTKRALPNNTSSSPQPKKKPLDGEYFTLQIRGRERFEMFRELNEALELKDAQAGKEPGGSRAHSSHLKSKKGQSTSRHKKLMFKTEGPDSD

Experiment [5] concerns the target Estrogen receptor (Homo sapiens) (UniProt P03372). The experiment in a line: ATG_ERa_TRANS: Attagene TRANS-FACTORIAL HepG2 Assay for human Estrogen Receptor alpha (ERa) (AID 2282970). The settings on record: HepG2 Attagene TRANS ERa GAL4 reporter, mRNA. The procedure, abridged:
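One of 30 multiplexed endpoints from a HepG2 TRANS system, this one reports ERa-Gal4-driven reporter mRNA. Transcripts were quantified 24 hours post-dosing by fluorescent RT-PCR and capillary electrophoresis, with activity scored as induction over DMSO.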

Experiment [6] has as its target bovine Estrogen Receptor (ER), ESR1 (gene 407238) (UniProt P49884). The experiment in a line: NVS_NR_bER: NovaScreen (NVS) Nuclear Receptor Binding Assay for bovine Estrogen Receptor (ER) (AID 2283345).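 Note: actives lower the bound radioligand count which means they displace the ER ligand.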 The procedure, abridged: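 Cell-free radioligand binding with receptor from bovine uterine membranes, read by scintillation counting 18 h after dosing. Loss of specific binding was scored against DMSO; primary screen at 25 uM in duplicate, actives then run as concentration series.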
Sequence of UniProt P49884 (P49884 whole entry, looked up): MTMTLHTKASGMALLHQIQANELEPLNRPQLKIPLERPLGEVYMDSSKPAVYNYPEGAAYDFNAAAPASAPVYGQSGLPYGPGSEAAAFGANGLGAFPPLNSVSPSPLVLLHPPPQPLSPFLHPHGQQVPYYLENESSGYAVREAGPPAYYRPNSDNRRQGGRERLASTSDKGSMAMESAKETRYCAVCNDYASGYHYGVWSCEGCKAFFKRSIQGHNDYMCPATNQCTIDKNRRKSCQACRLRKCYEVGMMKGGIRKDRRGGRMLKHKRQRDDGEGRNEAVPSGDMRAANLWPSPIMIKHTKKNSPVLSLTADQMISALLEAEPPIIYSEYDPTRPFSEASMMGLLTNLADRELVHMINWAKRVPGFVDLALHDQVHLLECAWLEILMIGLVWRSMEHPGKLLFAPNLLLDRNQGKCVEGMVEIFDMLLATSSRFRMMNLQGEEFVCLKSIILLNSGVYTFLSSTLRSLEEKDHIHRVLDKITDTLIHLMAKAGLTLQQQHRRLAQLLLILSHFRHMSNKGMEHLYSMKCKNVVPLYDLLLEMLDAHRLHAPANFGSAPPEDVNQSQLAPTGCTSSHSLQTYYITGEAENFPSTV

In experiment [7] the target is Estrogen receptor (Homo sapiens) (UniProt P03372). In words: NVS_NR_hER: NovaScreen (NVS) Nuclear Receptor Binding Assay for human Estrogen Receptor (ER) (AID 2283348). The procedure, abridged:
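MCF7-derived receptor extract, radiolabelled ligand, competitive displacement. Read: scintillation counts at 18 h. DMSO = negative control/baseline. Primary 25 uM duplicate; follow-up concentration–response.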

The target of experiment [8] is Aryl hydrocarbon receptor (Homo sapiens) (UniProt P35869). In words: ATG_Ahr_CIS: Attagene CIS-FACTORIAL HepG2 Assay for human Aryl Hydrocarbon Receptor (Ahr) (AID 2282930; active = hit-call score of the fitted dose curve at least 0.9, where 1 is the maximum; inactive = score below 0.9). The following applies: HepG2 AhR cis-factorial reporter transcription; actives raise or lower the signal. The procedure, abridged: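 HepG2 cells transiently transfected with cis-element-driven multiplexed reporter units; endogenous AhR activity read as reporter mRNA 24 h after dosing, via RT-PCR, 6-FAM labelling, HpaI digestion and capillary electrophoresis. Bidirectional fit relative to DMSO.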
Sequence of UniProt P35869 (P35869 whole entry, looked up): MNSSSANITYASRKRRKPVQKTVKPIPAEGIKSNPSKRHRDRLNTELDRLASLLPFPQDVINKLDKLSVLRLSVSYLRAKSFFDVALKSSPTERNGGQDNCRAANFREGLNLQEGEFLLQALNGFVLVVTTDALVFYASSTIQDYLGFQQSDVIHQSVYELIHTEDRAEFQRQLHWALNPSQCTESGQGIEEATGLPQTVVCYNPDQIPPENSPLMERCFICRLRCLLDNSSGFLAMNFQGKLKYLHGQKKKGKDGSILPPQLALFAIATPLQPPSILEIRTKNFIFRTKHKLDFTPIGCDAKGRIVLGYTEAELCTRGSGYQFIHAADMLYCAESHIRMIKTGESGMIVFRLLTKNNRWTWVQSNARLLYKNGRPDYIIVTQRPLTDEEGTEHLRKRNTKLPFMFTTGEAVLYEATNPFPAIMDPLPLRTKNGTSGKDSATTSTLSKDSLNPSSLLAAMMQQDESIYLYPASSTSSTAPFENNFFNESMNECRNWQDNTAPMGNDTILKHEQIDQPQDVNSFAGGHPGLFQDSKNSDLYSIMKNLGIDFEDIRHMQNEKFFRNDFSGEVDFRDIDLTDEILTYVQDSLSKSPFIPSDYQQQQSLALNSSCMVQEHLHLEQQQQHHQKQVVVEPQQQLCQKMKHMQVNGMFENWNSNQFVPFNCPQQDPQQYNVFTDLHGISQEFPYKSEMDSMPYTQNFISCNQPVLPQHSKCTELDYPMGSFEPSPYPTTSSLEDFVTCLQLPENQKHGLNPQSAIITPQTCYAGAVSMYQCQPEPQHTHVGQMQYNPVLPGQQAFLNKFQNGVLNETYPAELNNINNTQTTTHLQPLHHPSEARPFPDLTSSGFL

Experiment [9] can be described thus: ATG_NRF2_ARE_CIS: Attagene CIS-FACTORIAL HepG2 Assay for human Nuclear Factor Erythroid 2 Related Factor 2 (NFR2) response to Antioxidant Response Elements (ARE) (AID 2282992; active = hit-call score of the fitted dose curve at least 0.9, where 1 is the maximum; inactive = score below 0.9;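 note: reporter mRNA level measured by RT-PCR and capillary electrophoresis fluorescence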). The following applies: HepG2 Attagene ARE/NRF2 reporter, transcription factor activity; actives raise or lower the signal. The procedure, abridged: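 Fluorescence intensity of reporter-specific cDNA fragments, separated by capillary electrophoresis, reflects mRNA induction in transfected HepG2 cells at 24 h. Activity is fitted bidirectionally, DMSO serving as baseline.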

Experiment [10] concerns the target Nuclear receptor subfamily 1 group I member 2 (Homo sapiens) (UniProt O75469). In words: ATG_PXR_TRANS: Attagene TRANS-FACTORIAL HepG2 Assay for human Pregnane X Receptor (PXR) (AID 2283008). The procedure, abridged:
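Transient HepG2 transfectants carrying multiplexed reporter transcription units; PXR activity read through a Gal4 chimera. 24 h exposure. RT-PCR/CE fluorescence; upward curve fit referenced to DMSO.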

Experiment [11] has as its target Estrogen receptor (Homo sapiens) (UniProt P03372). In words: OT_ER_ERaERa_1440: Odyssey Thera (OT) 24-hour HEK293T Protein-Complementation Assay for Estrogen Receptor-alpha/-alpha Homodimer (AID 2283349).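 Note: hits raise fluorescence above DMSO for agonists and antagonists alike.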 The procedure, abridged: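 Cells (HEK293T) carrying the fragment-tagged ERα LBD (aa 310-547) pair are treated with chemical for 24 hours. Nuclear and/or cytoplasmic fluorescence is then quantified on a laser scanning cytometer. Activity is scored as signal gain against DMSO.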

For experiment [12] the target is unchanged. In words: OT_ER_ERaERa_0480: Odyssey Thera (OT) 8-hour HEK293T Protein-Complementation Assay for Estrogen Receptor-alpha/-alpha Homodimer (AID 2283351).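 Note: rise in fluorescence from reassembled reporter fragments on ERα LBD homodimer in nucleus or whole cell.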 The procedure, abridged:
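Read-out: fluorescence intensity rise relative to DMSO, nuclear for agonists, nuclear plus cytoplasmic for antagonists. Construct is the ERα LBD (aa 310-547) homodimer fragment-complementation pair, stably expressed in HEK293T; exposure 8 h.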

Experiment [13] concerns the target Estrogen receptor (Homo sapiens) + Estrogen receptor beta (Homo sapiens) (UniProt P03372+Q92731). The experiment in a line: OT_ER_ERaERb_0480: Odyssey Thera (OT) 8-hour HEK293T Protein-Complementation Assay for Estrogen Receptor-alpha/-beta Heterodimer (AID 2283352). The procedure, abridged:
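HEK293T cells expressing ER-alpha/ER-beta LBD fusions to complementary reporter fragments were dosed with compound for 8 hours. Heterodimer formation was read as increased nuclear (agonist) or nuclear plus cytoplasmic (antagonist) mean fluorescence intensity versus DMSO vehicle.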

For experiment [14], the target named is Estrogen receptor beta (Homo sapiens) (UniProt Q92731). The experiment in a line: OT_ER_ERbERb_0480: Odyssey Thera (OT) 8-hour HEK293T Protein-Complementation Assay for Estrogen Receptor-beta/-beta Homodimer (AID 2283357).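 Note: active means signal gain over DMSO baseline.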 The procedure, abridged: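 Homodimerization of ER-beta LBD measured by protein-fragment complementation in HEK293T; 8 h dosing; fixed, Draq5 counterstain; fluorescence intensity gain over DMSO baseline, positive fitting direction; laser scanning cytometry.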
Sequence of UniProt Q92731 (Q92731 whole entry, looked up, the tested form may be a part): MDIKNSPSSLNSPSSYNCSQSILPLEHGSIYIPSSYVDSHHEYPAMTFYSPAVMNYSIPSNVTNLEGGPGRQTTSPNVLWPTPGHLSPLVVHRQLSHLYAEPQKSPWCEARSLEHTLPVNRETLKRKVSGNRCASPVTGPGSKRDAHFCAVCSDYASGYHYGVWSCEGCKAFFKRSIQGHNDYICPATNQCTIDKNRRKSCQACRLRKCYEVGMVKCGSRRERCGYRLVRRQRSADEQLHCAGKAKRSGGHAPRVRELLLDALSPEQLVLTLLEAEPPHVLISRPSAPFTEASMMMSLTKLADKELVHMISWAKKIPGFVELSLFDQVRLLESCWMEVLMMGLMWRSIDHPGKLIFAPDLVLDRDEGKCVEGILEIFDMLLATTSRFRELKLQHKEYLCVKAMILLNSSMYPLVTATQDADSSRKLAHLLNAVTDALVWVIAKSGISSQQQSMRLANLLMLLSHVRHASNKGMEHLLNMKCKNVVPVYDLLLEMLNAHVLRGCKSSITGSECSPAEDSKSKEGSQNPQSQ

Experiment [15] has as its target Glucocorticoid receptor (Homo sapiens) (UniProt P04150). The experiment in a line: NVS_NR_hGR: NovaScreen (NVS) Nuclear Receptor Binding Assay for human Glucocorticoid Receptor (GR) (AID 2283363).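 Note: activity is loss of specific radioligand binding signal relative to DMSO.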 The procedure, abridged:
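Filter scintillation readout of tritiated/iodinated radioligand displaced by test chemical; cell-free extracted protein; 16 h. DMSO = negative control/baseline. Duplicate single-point 25 uM screen, then concentration-response on actives.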

The target of experiment [16] is rat Androgen Receptor (AR), Ar (gene 24208) (UniProt P15207). The experiment in a line: NVS_NR_rAR: NovaScreen (NVS) Nuclear Receptor Binding Assay for rat Androgen Receptor (AR) (AID 2283366). The procedure, abridged:
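Actives from a duplicate single-concentration (25 uM) primary run went on to concentration series. Displacement of radioligand was counted by filtration and scintillation, 18 h post-dose, using prostate extracts from testosterone-pretreated rats, with DMSO as baseline.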

Experiment [17] has as its target Estrogen receptor beta (Homo sapiens) (UniProt Q92731). The experiment in a line: OT_ER_ERbERb_1440: Odyssey Thera (OT) 24-hour HEK293T Protein-Complementation Assay for Estrogen Receptor-beta/-beta Homodimer (AID 2283380).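 Note: scored as signal increase over DMSO baseline for both agonists and antagonists.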 The procedure, abridged: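 HEK293T cells stably expressing ER beta LBD (aa 310-547) homodimer fragment-complementation reporter, dosed 24 h. Cells formaldehyde-fixed, Draq5-stained; gain in nuclear (agonist) or nuclear plus cytoplasmic (antagonist) fluorescence versus DMSO read by laser scanning cytometry.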

Experiment [18] has as its target Estrogen receptor (Homo sapiens) (UniProt P03372). In words: OT_ERa_GFPERaERE_0480: Odyssey Thera (OT) 8-hour HeLa Transcription Induction Assay for Estrogen Receptor (AID 2283381; active = hit-call score of the fitted dose curve at least 0.9, where 1 is the maximum; inactive = score below 0.9). The procedure, abridged:
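GFP-ERE reporter, HeLa, 8 h exposure. Readout: fluorescence microscopy, high-content image analysis. Fit direction positive vs DMSO negative control.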

The target is the same in experiment [19]. The experiment in a line: OT_ERa_GFPERaERE_0120: Odyssey Thera (OT) 2-hour HeLa Transcription Induction Assay for Estrogen Receptor (AID 2283382). The procedure, abridged:
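Fluorescence microscopy read-out: inducible fluorescent protein reporter in HeLa cells, imaged 2 h post-dose. Signal increase over DMSO negative control fitted as single primary endpoint via high content image analysis.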

The nature of experiment [20]: ATG_CMV_CIS: Attagene CIS-FACTORIAL HepG2 Assay for human CMV (Internal Marker) (AID 2282928; active = hit-call score of the fitted dose curve at least 0.9, where 1 is the maximum; inactive = score below 0.9;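 note: endpoint acts as a background internal control marker rather than a target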). The settings on record: HepG2 CMV promoter reporter, transcription factor profiling; actives raise or lower the signal. The procedure, abridged: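 Fluorescence intensity of RT-PCR-derived reporter fragments, resolved by capillary electrophoresis, gives the signal. HepG2 liver cells bearing transfected cis-element reporters were treated 24 h; activity in either direction was fit relative to DMSO-treated controls.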

Experiment [21] in a line: ATG_ERE_CIS: Attagene CIS-FACTORIAL HepG2 Assay for Estrogen Response Element (ERE) (AID 2282940; active = hit-call score of the fitted dose curve at least 0.9, where 1 is the maximum; inactive = score below 0.9). The settings on record: HepG2 ERE cis-reporter, Attagene RNA transcript; actives raise or lower the signal. The procedure, abridged: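 Measuring endogenous transcription factor output, the assay doses transfected HepG2 cells for 24 hours and quantifies reporter transcripts by fluorescent RT-PCR and capillary electrophoresis, with DMSO as baseline.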

Sequence of UniProt P04150 (P04150 whole entry, looked up): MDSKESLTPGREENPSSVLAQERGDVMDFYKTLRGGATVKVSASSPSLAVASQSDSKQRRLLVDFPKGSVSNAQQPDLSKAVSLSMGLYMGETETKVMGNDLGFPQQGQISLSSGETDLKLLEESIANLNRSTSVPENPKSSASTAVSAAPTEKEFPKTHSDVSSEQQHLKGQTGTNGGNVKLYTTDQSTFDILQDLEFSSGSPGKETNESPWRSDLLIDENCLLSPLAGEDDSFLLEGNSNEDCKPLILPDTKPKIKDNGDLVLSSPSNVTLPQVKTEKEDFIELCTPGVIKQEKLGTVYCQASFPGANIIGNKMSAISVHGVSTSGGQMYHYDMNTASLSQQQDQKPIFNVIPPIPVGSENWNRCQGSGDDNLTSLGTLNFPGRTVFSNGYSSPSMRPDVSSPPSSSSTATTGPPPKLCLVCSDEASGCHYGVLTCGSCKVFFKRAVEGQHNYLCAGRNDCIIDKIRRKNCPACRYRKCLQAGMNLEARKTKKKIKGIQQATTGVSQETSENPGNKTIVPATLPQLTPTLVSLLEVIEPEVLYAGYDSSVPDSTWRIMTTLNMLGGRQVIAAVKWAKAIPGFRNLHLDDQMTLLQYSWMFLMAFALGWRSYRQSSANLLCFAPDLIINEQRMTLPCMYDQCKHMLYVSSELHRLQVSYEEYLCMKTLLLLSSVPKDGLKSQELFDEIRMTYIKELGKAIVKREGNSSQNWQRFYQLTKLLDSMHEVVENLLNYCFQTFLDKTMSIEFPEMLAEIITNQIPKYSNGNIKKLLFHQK
Sequence of UniProt P15207 (P15207 whole entry, looked up): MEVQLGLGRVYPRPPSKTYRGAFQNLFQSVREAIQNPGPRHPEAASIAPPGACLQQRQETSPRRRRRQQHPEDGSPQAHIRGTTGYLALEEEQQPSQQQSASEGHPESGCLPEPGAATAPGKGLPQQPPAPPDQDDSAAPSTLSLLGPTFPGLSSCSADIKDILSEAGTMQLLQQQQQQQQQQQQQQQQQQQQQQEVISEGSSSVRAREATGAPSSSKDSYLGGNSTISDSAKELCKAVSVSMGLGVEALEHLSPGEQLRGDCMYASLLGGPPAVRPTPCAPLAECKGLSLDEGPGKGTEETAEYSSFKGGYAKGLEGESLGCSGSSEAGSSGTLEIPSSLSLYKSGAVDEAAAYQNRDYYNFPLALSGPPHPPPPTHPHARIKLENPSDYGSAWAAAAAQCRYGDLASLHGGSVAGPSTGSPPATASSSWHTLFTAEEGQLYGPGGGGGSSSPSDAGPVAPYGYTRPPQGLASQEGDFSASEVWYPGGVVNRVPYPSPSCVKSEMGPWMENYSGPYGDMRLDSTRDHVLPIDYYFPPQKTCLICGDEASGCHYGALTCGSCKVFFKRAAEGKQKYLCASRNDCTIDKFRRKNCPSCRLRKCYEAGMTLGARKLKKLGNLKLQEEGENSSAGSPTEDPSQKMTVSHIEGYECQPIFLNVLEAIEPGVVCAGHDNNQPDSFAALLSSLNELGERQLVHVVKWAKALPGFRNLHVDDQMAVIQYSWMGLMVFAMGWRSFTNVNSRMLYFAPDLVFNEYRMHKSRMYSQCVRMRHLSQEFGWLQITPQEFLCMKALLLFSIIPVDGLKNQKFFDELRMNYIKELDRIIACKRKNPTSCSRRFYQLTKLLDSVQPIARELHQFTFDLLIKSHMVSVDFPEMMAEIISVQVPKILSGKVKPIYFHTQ
Sequence of UniProt O75469 (O75469 whole entry, looked up, the tested form may be a part): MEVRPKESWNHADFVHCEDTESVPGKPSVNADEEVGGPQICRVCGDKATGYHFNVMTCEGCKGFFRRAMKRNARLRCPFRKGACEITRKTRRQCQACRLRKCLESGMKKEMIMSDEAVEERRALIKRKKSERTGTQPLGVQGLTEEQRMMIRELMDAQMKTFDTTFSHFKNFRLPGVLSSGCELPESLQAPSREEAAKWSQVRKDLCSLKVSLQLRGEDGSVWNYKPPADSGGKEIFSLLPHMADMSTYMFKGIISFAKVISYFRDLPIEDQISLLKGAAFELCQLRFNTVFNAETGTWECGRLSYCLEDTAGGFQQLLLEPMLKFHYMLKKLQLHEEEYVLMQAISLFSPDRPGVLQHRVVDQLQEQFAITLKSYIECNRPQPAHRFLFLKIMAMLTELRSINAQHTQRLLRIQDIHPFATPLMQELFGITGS

Consider `CC#C[C@]1(O)CC[C@H]2[C@@H]3CCC4=CC(=O)CCC4=C3[C@@H](c3ccc(N(C)C)cc3)C[C@@]21C`, for which the AC50 entry in experiment [1] was “active: 40.1, 27.5, 12.4, 10.4 µM [separate samples]”; in [2], “active: 312, 116, 86, 122 nM [separate samples]”; in experiment [3] it was “active: 47.1, 40.1, 9.34, 16.2 µM [separate samples]”; in [4], “active: 11.9, 27.3, 8.71, 12.6 µM [separate samples]”.

For `O=C(O)c1ccccc1C(c1ccc(O)cc1)c1ccc(O)cc1`, the AC50 result in [5] is “active: 16.4, 32.8, 42.6, 53.6 µM [separate samples]”; in experiment [6], “active: 7.6, 17.1, 38.4, 25 µM [separate samples]”; in [7], “active: 3.58, 11.9, 13.1, 14.3 µM [separate samples]”.

As to `c1ccc2cc3c(ccc4ccccc43)cc2c1`, the AC50 result in experiment [8] is “active: 681 nM, 1.41 µM, 396 nM, 1.9 µM [separate samples]”; in [9] it was “active: 711 nM, 1.91 µM, 926 nM, 2.81 µM [separate samples]”.

In the case of `CC[C@H](c1ccc(O)cc1)[C@@H](CC)c1ccc(O)cc1`, the AC50 entry in [5] was “active: 3.82, 2.28, 1.09, 1.56 nM [separate samples]”; in experiment [10], “active: 3.03, 2.17, 8.26, 1.73 µM [separate samples]”; in experiment [6] it was “active: 0.274, 3.34, 3.93, 2.29, 94.7 nM [separate samples]”; in experiment [11], “active: 99.8, 68.4, 86.9, 121, 77.1, 6.21 nM [separate samples]”; in experiment [12], “active: 51.2, 72.4, 38.3, 24.1, 30, 51.3 nM [separate samples]”; in experiment [13] it was “active: 48.7, 45.2, 125, 29.6, 219, 29.9 nM [separate samples]”. In addition, the concentration at half-maximal activity (AC50) result is “active: 17.4, 20.4, 14.4, 30, 43.7, 76.9 nM [separate samples]” in experiment [14]; “active: 451, 135, 294, 304 nM [separate samples]” in experiment [15]; “active: 1.15 µM, 758 nM, 937 nM, 7.13 µM [separate samples]” in experiment [16]; “active: 17.4, 18.5, 16.5, 30, 27.1, 190 nM [separate samples]” in experiment [17]; “active: 3.81, 3.95, 2.4, 58.1, 20.1 nM [separate samples]” in [18]; “active: 3.06, 2.37, 4.77, 29.2, 189 nM [separate samples]” in [19].

Consider `O=c1c(-c2ccc(O)cc2)coc2cc(O)ccc12`, for which the AC50 result in [20] was “active: 38.5, 27.7, 38.8, 100 µM [separate samples]”; in [6], “active: 863 nM, 1.09 µM, 350 nM, 310 nM [separate samples]”.

`CCC(C)(C)C1CCC(O)CC1` (stereo not drawn): the AC50 entry in experiment [21] is “active: 14.8 µM, 297 nM, 2.76 µM, 42.7 µM [separate samples]”; in experiment [5], “active: 26.9, 2.01, 8.92, 27.9 µM [separate samples]”.

In the case of `OC1CCC(C2CCCCC2)CC1` (stereo not drawn), the AC50 result is “active: 124, 100, 35.2, 56.9 µM [separate samples]” in experiment [20] and “active: 17.1, 21.8, 8.24, 27.5 µM [separate samples]” in [5].

As to `CCC(=C(c1ccc(O)cc1)c1ccc(OCCN(C)C)cc1)c1ccccc1`, the AC50 entry in [15] is “active: 599, 181, 216, 411 nM [separate samples]”.
